Measured values reported in PMC4336329 (PLoS ONE, 2015).
In all, about 310,000 compounds went through this assay and about 2,200 (0.71%) showed an effect of 50% or more. Effects have a minus sign here. The list shows a part of the results.

target: human ether-à-go-go-related gene (hERG) potassium channel (human, UniProt Q12809); assay: primary screen, population patch clamp on CHO cells stably expressing hERG
Sequence (Q12809 whole entry, looked up): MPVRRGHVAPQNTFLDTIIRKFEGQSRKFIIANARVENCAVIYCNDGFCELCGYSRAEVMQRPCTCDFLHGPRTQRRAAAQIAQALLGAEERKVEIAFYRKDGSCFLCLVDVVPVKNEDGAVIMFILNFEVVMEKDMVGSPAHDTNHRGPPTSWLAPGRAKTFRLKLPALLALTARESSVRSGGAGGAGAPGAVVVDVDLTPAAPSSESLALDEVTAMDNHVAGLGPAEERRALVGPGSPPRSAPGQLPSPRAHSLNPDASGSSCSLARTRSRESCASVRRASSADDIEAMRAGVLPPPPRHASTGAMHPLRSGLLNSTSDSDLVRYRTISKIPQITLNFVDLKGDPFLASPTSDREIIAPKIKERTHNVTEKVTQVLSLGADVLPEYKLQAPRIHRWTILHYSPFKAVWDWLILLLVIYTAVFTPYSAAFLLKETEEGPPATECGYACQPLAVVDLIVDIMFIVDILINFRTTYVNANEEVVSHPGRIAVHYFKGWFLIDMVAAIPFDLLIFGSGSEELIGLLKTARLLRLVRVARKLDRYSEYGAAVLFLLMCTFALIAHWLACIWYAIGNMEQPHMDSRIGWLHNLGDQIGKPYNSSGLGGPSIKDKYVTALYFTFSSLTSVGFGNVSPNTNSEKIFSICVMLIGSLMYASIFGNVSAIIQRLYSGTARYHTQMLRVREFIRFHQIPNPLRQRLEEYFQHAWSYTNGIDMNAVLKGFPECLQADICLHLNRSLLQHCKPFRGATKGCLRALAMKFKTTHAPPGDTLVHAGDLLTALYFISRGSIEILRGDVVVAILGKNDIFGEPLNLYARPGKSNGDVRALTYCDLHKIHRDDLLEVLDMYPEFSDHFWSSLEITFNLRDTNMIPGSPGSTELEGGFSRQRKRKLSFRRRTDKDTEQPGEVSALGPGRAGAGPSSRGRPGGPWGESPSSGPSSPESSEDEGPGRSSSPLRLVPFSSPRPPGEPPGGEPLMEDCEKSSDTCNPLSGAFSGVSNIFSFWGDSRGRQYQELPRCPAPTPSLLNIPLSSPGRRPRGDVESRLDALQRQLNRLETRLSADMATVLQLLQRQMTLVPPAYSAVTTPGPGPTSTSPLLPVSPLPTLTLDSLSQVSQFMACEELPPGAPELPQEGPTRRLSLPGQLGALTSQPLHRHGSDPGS

Point of comparison: `O=C(NCCOc1ccccc1)C1CCC(=O)N(CCCN2CCCC2=O)C1` (stereo not shown), “hERG current change (%, negative = inhibition) at 1uM” value 7.28%. Against it:
- O=C(CNCc1ccco1)Nc1ccc(N2CCCCCC2)cc1.O=C(O)C(=O)O — higher, 7.67%
- O=c1[nH][nH]c2cc(=O)n(-c3ccc(Cl)cc3)nc12 — higher, 16%
- COc1ccc(N(CC(=O)NCC2CCCO2)C(=O)CCC(=O)Nc2nccs2)c(OC)c1 (stereo not shown) — higher, 11.2%
- O=C(/C=N/O)NCCCN1CCOCC1 — higher, 16.5%
- COc1ccc(C(C)=O)cc1CSc1nnc(-c2ccc(Cl)cc2)n1-c1ccccc1 — lower, -2.21%
- OCCCNc1cc(-c2ccnc(Nc3cccc(Cl)c3)n2)ccn1 — higher, 11.8%
- O=[N+]([O-])c1ccc2nonc2c1Nc1cccc(F)c1 — higher, 9.76%
- CCN(CC)C(=O)C(=O)c1cn(CC(=O)NCC2CCCO2)c2ccccc12 (stereo not shown) — higher, 9.44%
- Cc1oc2c(c(C)cc3oc(=O)c(CC(=O)NCCC(=O)O)c(C)c32)c1C — higher, 12.5%
- CCC(=O)Nc1ccc(N2CCN(Cc3ccccc3F)CC2)cc1 — lower, -0.732%
- COc1ccc(C2(C(=O)NCCc3ccccc3)CCCC2)cc1 — lower, 7.27%
- CCC(=NCCO)c1c(O)n(-c2ccccc2)c(=O)[nH]c1=O — higher, 14.8%
- O=C(COC(=O)CSc1ccc(F)cc1)NCCCc1ccccc1 — higher, 12.6%
- Cc1ccc(NC(=O)c2c(C)nn(-c3ccccc3)c2Cl)cc1 — lower, 0.559%
- O=C(c1ccc2snnc2c1)N1CCCC1 — higher, 12.4%
- COc1ccc(C(=O)Nc2ccncc2)cc1S(=O)(=O)N1CCOCC1 — higher, 11.9%
- OC(C#CCN1CCCC1)(c1ccccc1)c1ccccc1 — lower, -6.28%
- COC(=O)CC1COc2ccccc2N1C(=O)c1ccc(Br)cc1 (stereo not shown) — lower, 4.26%
- O=C1COc2ccc(C(=O)COC(=O)c3ccc4ccccc4n3)cc2N1 — higher, 12.8%
- Cc1ccc(C)c(NC(=O)CN(C)C(=O)c2cc3c(s2)CCCCC3)c1 — lower, 1.51%
- O=C(Nc1nc(=O)n(C(=O)c2cccc(C(F)(F)F)c2)s1)c1ccccc1 — higher, 8.83%
- CC(C)=C1C2CC2C2C(C(=O)O)C12 (stereo not shown) — higher, 12.1%
- CCC(C)NC(=O)c1c(N)n(/N=C/c2ccccn2)c2nc3ccccc3nc12 (stereo not shown) — lower, 5.12%
- O=C1CC(NNC(=O)c2ccccc2)C(=O)N1 (stereo not shown) — higher, 13.8%
- CCOc1cccc(C(=O)Nc2ccc(N3CCCC3)cc2)c1 — higher, 11.3%
- COCCC(=O)N1CCc2c([nH]c3ccccc23)C1C(C)(C)C (stereo not shown) — lower, 3.37%
- N#Cc1ccc(OCC(=O)Nc2cc(S(=O)(=O)N3CCOCC3)ccc2N2CCOCC2)cc1 — lower, 0.376%
- COc1ccc(-n2c(N)c(C(=O)NCC3CCCO3)sc2=S)cc1 (stereo not shown) — lower, -11.1%
- C/C(=C\C(=O)C(F)(F)F)Nc1ccc(C(F)(F)F)cc1 — higher, 10.6%
- CC(C)(C)SCCNC(=O)CN(c1ccccc1)S(=O)(=O)c1ccc(F)cc1 — lower, 5.94%
- CC(C)n1ncc(C(N)=O)c1N — higher, 13.1%
- Cc1nc2ccccc2c2c1C(=O)N(C1CCCCCCC1)C2=O — lower, -2.74%
- O=C(NCC1CCCO1)c1cc(C(=O)c2ccc(Cl)cc2Cl)c[nH]1 (stereo not shown) — higher, 9.06%
- COCCCNC(=O)Cc1ccc(S(=O)(=O)N2CCOCC2)s1 — higher, 9.12%
- CCOc1ccc(S(=O)(=O)Nc2cccnc2)cc1 — higher, 17.8%
- N#Cc1ccsc1NC(=O)COC(=O)c1cc(Br)ccc1O — higher, 8.67%
- CCC(C)NCC(=O)Nc1ccc(-c2nc3cc(NC(=O)CNC(C)CC)ccc3o2)cc1 (stereo not shown) — lower, 5.15%
- Cc1c(N(C)S(=O)(=O)c2cc(C(=O)NCC3CCCO3)ccc2Cl)c(=O)n(-c2ccccc2)n1C (stereo not shown) — lower, 4.94%
- CCOC(=O)NC(=O)C(=CNc1cccc(OC)c1)C(=O)NC(=O)OCC — higher, 15.1%
- Clc1ccccc1-c1nnc2sc(CCc3ccccc3)nn12 — higher, 9.95%
- COc1cccc(COC(=O)CSCC(=O)Nc2cccc(C)c2)c1OC — higher, 10.1%
- COc1ccc(/C=N/NC(=O)c2ccc3ccccc3c2)cc1OS(=O)(=O)c1ccc(NC(C)=O)cc1 — lower, -1.89%
- Cc1cc(C)n(C(=O)c2ccc(NC(=O)C3COc4ccccc4O3)cc2)n1 (stereo not shown) — lower, 0.869%
- COc1ccc(OCCC(=O)c2ccc(OC)cc2)cc1 — lower, 4.68%
- CCN1CCC(C(N)=O)CC1 — lower, 6.67%
- O=C(CSc1nnc(-c2n[nH]c3ccccc23)n1-c1ccccc1)Nc1ccccc1Cl — lower, 6.69%
- O=C(Nc1cccc(NC(=O)c2ccc(Cl)cc2)n1)c1ccc(Cl)cc1 — higher, 14.3%
- C=CCNC(=O)/C(C#N)=C/c1cc(Br)ccc1OC — higher, 14.8%
- COc1ccccc1CNC(=O)C1CCN(S(=O)(=O)c2ccc3c(c2)C(C)(C)C(=O)N3C)CC1 — higher, 7.82%
- O=C(c1cccs1)N1CCN=C1SCc1cccc(F)c1 — higher, 10.6%
- N#Cc1ccc(NC(=O)CN2C(=O)NC3(CCCCCCC3)C2=O)cc1Cl — higher, 16.7%
- O=C(NCCN1CCN(c2ccccc2F)CC1)c1cccn2c(=O)c3ccccc3nc12 — lower, -31.8%
- CC(O)CCC(=O)NNC(=S)Nc1ccccc1 (stereo not shown) — lower, -1.37%
- CCOc1ccc(OCC(=O)Nc2ccc(N3CCCCC3)cc2)cc1 — higher, 12.3%
- Cc1ccc(C(=O)C(C)OC(=O)CCN=C2NS(=O)(=O)c3ccccc32)cc1 (stereo not shown) — higher, 11.4%
- O=C(COc1ccc(Cl)cc1Cl)NCCCN1CCOCC1 — lower, -2.5%
- C#CCNC(=O)C1=C[C@@H](c2cn(C(C)=O)c3ccccc23)C[C@@H](OCc2ccc(CO)cc2)O1 — lower, 4.99%
